From the supplement of paper PMC12645437, “Orthogonal IMiD-Degron Pairs Induce Selective Protein Degradation in Cells” (ACS Chemical Biology, 2025)
The other results are listed elsewhere or left out.

B1: Q9UKT9 (peptide)
chain: FACPQCGAIFTQKGNLLRHIKL
B2: Q9UKT9 (peptide)
chain: FHCDQCGAFFTQKGNLLRHIKL
B3: Q9UKT9 (peptide)
chain: FCCNQCGRGFTQKGNLLRHIKL
B4: Q9UKT9 (peptide)
chain: FACPVCGAGFTQKGNLLRHIKL
B5: Q9UKT9 (peptide)
chain: FVCPICGATFTQKGNLLRHIKL
B6: Q9UKT9 (peptide)
chain: FWCPICGAQFTQKGNLLRHIKL
B7: Q9UKT9 (peptide)
chain: FQCSVCGHDFTQKGNLLRHIKL
B8: Q9UKT9 (peptide)
chain: FDCPQCGAQFTQKGNLLRHIKL
B9: Q9UKT9 (peptide)
chain: FDCNICGAQFTQKGNLLRHIKL
B10: Q9UKT9 (peptide)
chain: FFCNQCGRCFTQKGNLLRHIKL
B11: Q9UKT9 (peptide)
chain: FVCNVCGAFFTQKGNLLRHIKL
B12: Q9UKT9 (peptide)
chain: FQCPVCGAKFTQKGNLLRHIKL
B13: Q9UKT9 (peptide)
chain: FDCPICGAQFTQKGNLLRHIKL
B14: Q9UKT9 (peptide)
chain: FWCPICGADFTQKGNLLRHIKL
B15: Q9UKT9 (peptide)
chain: FECEICGHTFTQKGNLLRHIKL
B16: Q9UKT9 (peptide)
chain: FCCPICGRFFTQKGNLLRHIKL
B17: Q9UKT9 (peptide)
chain: FFCEVCGADFTQKGNLLRHIKL
B18: Q9UKT9 (peptide)
chain: LICEICGFMCTQKGNLLRHIKL
B19: Q9UKT9 (peptide)
chain: FWCPICGHDFTQKGNLLRHIKL
B20: Q9UKT9 (peptide)
chain: FNCPICGHKFTQKGNLLRHIKL
B21: Q9UKT9 (peptide)
chain: LQCPICGFQCTQKGNLLRHIKL
B22: Q9UKT9 (peptide)
chain: FHCDVCGAVFTQKGNLLRHIKL
B23: Q9UKT9 (peptide)
chain: FLCPVCGAEFTQKGNLLRHIKL
B24: Q9UKT9 (peptide)
chain: FLCNQCGHSFTQKGNLLRHIKL
B25: Q9UKT9 (peptide)
chain: FDCPVCGAEFTQKGNLLRHIKL
B26: Q9UKT9 (peptide)
chain: FECPVCGAHFTQKGNLLRHIKL
B27: Q9UKT9 (peptide)
chain: FDCNQCGRMFTQKGNLLRHIKL
B28: Q9UKT9 (peptide)
chain: FYCNQCGHIFTQKGNLLRHIKL
B29: Q9UKT9 (peptide)
chain: LCCEICGFICTQKGNLLRHIKL
B30: Q9UKT9 (peptide)
chain: FTCSVCGHMFTQKGNLLRHIKL
B31: Q9UKT9 (peptide)
chain: FKCPQCGAWFTQKGNLLRHIKL
B32: Q9UKT9 (peptide)
chain: FVCEQCGANFTQKGNLLRHIKL
B33: Q9UKT9 (peptide)
chain: LYCEICGFGCTQKGNLLRHIKL
B34: Q9UKT9 (peptide)
chain: FTCEICGAMFTQKGNLLRHIKL
B35: Q9UKT9 (peptide)
chain: FMCEICGHYFTQKGNLLRHIKL
B36: Q9UKT9 (peptide)
chain: FDCPICGHAFTQKGNLLRHIKL
B37: Q9UKT9 (peptide)
chain: FHCPVCGAFFTQKGNLLRHIKL
B38: Q9UKT9 (peptide)
chain: LFCPICGFYCTQKGNLLRHIKL
B39: Q9UKT9 (peptide)
chain: FICPICGHSFTQKGNLLRHIKL
B40: Q9UKT9 (peptide)
chain: FHCNQCGHRFTQKGNLLRHIKL
B41: Q9UKT9 (peptide)
chain: FHCSVCGHQFTQKGNLLRHIKL
B42: Q9UKT9 (peptide)
chain: FTCPICGRVFTQKGNLLRHIKL
B43: Q9UKT9 (peptide)
chain: FLCEQCGAGFTQKGNLLRHIKL
B44: Q9UKT9 (peptide)
chain: FLCPICGAHFTQKGNLLRHIKL
B45: Q9UKT9 (peptide)
chain: FYCNVCGAFFTQKGNLLRHIKL
B46: Q9UKT9 (peptide)
chain: FRCNQCGRQFTQKGNLLRHIKL
B47: Q9UKT9 (peptide)
chain: FICNQCGHQFTQKGNLLRHIKL
B48: Q9UKT9 (peptide)
chain: FNCEICGRPFTQKGNLLRHIKL
B49: Q9UKT9 (peptide)
chain: FRCEICGARFTQKGNLLRHIKL
B50: Q9UKT9 (peptide)
chain: FMCEICGREFTQKGNLLRHIKL

Molecular target: no compound (DMSO)
Assay: log2 fold change of degron read counts, EGFP-low vs EGFP+ sorted cells; higher = lower degron-EGFP level without compound (poor expression or instability)
Settings: compound: DMSO control; 18 h
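Also: jurkat cells carrying a lentiviral library of mutant zinc finger degrons fused to EGFP plus mCherry, mCherry+ cells FACS sorted, degron abundance counted by next-generation sequencing.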

Row | Sequence | log2 fold change of degron read counts
1 | B1 | -0.541
2 | B2 | -0.953
3 | B3 | -0.526
4 | B4 | -0.0932
5 | B5 | -0.325
6 | B6 | -0.0378
7 | B7 | -1.26
8 | B8 | -0.889
9 | B9 | -0.948
10 | B10 | 0.541
11 | B11 | 0.155
12 | B12 | -0.629
13 | B13 | -1.01
14 | B14 | 0.305
15 | B15 | -1.83
16 | B16 | 1.03
17 | B17 | -2.37
18 | B18 | 0.385
19 | B19 | 0.715
20 | B20 | -0.528
21 | B21 | 0.289
22 | B22 | -0.995
23 | B23 | -0.764
24 | B24 | -0.417
25 | B25 | -2.01

Row | Sequence | log2 fold change of degron read counts
26 | B26 | -0.0373
27 | B27 | 0.74
28 | B28 | 0.922
29 | B29 | 0.744
30 | B30 | -0.182
31 | B31 | 0.115
32 | B32 | -2.17
33 | B33 | 0.505
34 | B34 | -1.11
35 | B35 | -0.726
36 | B36 | -1.27
37 | B37 | 0.314
38 | B38 | 2.07
39 | B39 | -0.329
40 | B40 | 0.518
41 | B41 | -0.163
42 | B42 | -0.417
43 | B43 | -1.83
44 | B44 | 0.00311
45 | B45 | 0.892
46 | B46 | -0.148
47 | B47 | -2.14
48 | B48 | -0.866
49 | B49 | -0.845
50 | B50 | -3.52
